The test has as its target T1, full length human NR2 (leptin receptor) with N-terminal FLAG epitope, on the surface of transfected Ba/F3 or … (human, UniProt P48357 26-891).
T1 construct: The Xba I cloning site probably adds Ser-Arg between FLAG and Y26; these two residues are not included here; also called hNR2; haemopoietin receptor
T1 sequence: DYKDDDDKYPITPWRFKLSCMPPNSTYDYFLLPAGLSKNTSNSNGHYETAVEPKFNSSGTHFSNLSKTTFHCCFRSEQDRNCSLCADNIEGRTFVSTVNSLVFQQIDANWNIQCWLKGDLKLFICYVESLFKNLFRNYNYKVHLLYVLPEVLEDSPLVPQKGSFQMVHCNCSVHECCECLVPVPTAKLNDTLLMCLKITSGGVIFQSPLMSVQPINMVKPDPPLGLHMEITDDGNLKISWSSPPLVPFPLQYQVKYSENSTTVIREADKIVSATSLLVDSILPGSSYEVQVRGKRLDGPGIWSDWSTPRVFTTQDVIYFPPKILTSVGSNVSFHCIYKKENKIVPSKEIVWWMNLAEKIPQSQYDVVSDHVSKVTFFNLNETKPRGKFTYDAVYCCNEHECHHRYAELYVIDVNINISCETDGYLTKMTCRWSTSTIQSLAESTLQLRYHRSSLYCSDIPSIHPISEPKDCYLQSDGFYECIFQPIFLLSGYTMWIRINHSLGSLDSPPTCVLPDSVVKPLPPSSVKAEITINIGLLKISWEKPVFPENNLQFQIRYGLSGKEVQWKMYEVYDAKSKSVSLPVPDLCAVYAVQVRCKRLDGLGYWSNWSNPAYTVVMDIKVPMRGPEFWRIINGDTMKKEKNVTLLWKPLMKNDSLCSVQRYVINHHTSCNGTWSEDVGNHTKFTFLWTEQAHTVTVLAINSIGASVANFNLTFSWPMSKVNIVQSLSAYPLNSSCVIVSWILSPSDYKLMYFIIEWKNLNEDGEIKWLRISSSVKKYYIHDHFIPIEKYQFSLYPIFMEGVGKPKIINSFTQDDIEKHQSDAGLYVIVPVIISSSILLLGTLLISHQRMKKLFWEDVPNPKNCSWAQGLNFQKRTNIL
The test is described as follows: Scatchard transformation of saturation binding of 125I human leptin to Ba/F3/hNR2 cells at 23 C. The method, then: The mixture was incubated for 1-1.5 hr at 23° C. and then layered over 200 μl cold foetal calf serum in small, tapered centrifuge tubes (Elkay, Melbourne) and centrifuged at 12000 g for 10 sec. The cell pellet was removed by cutting the tubes with a scalpel blade and the cell bound (pellet) radioactivity and the unbound radioactivity (the rest of the tube) were separately counted in a Packard γ-counter. […] The data were plotted as saturation curves (specifically bound versus added ¹²⁵I h leptin) and as Scatchard transformations (specific bound/free radioactivity versus specific bound radioactivity to determine the equilibrium dissociation constants [Kds] (20).

B1: human leptin, N-terminal FLAG epitope, monomeric form, iodinated with 125I (ligand)
chain: not shown
modifications: iodinated with 125I (modified iodine monochloride method); residues not stated
notes: Made in CHO cells, purified on anti-FLAG M2 and by gel filtration (monomeric form)
With B1, the Kd turned out to be 0.12 nM.

(Values after patent publication US20050004015A1 (AMRAD OPERATIONS, published 2005).)
